Some of the results follow. At the low end of the ranking the order means little.

The experiment addresses T1, GST-Rok-C97-191 (UniProt O34857).
T1 sequence: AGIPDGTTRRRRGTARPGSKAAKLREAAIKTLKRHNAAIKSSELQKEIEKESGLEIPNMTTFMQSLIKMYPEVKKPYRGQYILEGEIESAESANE
The experiment in a line: protein binding microarray.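 Also: rank score from −0.5 (least bound) to 0.5 (best bound).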 As to conditions: Rok is a gene silencer of Bacillus subtilis; high values mean tight binding; most listed sequences are background and not binding sites; double strand, one strand shown.
AATAATTG returned a binding signal of 0.0816 E-score.
The same measure for CATAGACA: -0.0183 E-score; for AAAGAAAT: -0.0989 E-score; for GAAATGAA: 0.00977 E-score.
The same measure for CTTCCAGC: -0.0613 E-score; for CTGAGCGA: 0.00947 E-score; for CCGAACCG: -0.32 E-score.
The same measure for GAGTCGCA: -0.162 E-score; for ATTACTAA: 0.326 E-score.
In turn, CGAGTGCG registered a binding signal of -0.0584 E-score.
For CTGTAGGA, the binding signal was 0.118 E-score.
ACCAAGAG came in with a binding signal of -0.149 E-score.
To ATCCAGTC belongs -0.0969 E-score; to CCTGCCGC, -0.386 E-score; to ATAGGCGA, -0.00979 E-score.
For the sequence TACAGCAA, the binding signal worked out at 0.0466 E-score.
Turning to GAAGATGC, the binding signal was -0.0628 E-score.
To GAGTGCCA belongs -0.218 E-score; to CAAAGGGC, -0.206 E-score.
The sequence CCTCGATC showed a binding signal of -0.126 E-score.
As for GCAGAGAC, the binding signal is -0.236 E-score.
To CGGAGCAG belongs -0.201 E-score; to CTAAACAG, -0.177 E-score.
In turn, CTTCTGGA registered a binding signal of -0.138 E-score.
In turn, CCCGGCGG gave a binding signal of -0.32 E-score.
Sequence AAGGTAAA came in with a binding signal of 0.107 E-score.
The same measure for AGGGAAGC: -0.268 E-score; for GCAAAAAC: 0.0468 E-score.
To ACTTGGAT belongs 0.0828 E-score; to AGGAAAGC, -0.231 E-score; to CAACCATG, -0.0768 E-score.
AATTTAAT showed a binding signal of 0.321 E-score.
Take CTAACCGA: the binding signal is -0.169 E-score.
ATACTCTA: the binding signal was 0.206 E-score.
To ATTTGAGC belongs -0.175 E-score; to AGCCCCGG, -0.386 E-score; to ACAGCTCC, -0.0848 E-score.
The sequence ATCAGCCC had a binding signal of -0.226 E-score.
To ATTCATGA belongs 0.0548 E-score; to CTGTCACA, -0.144 E-score; to CTCAACAA, -0.199 E-score.
To AGGCTTAG belongs -0.213 E-score; to GAGTTCGA, -0.09 E-score; to CTACCGAG, 0.236 E-score.
The sequence ATAGCCGG had a binding signal of -0.056 E-score.
In turn, GGTCGGGA had a binding signal of -0.255 E-score.
To GTTGGGGA belongs -0.0942 E-score; to CCCGGTAC, -0.0654 E-score.
For ACTGTTCT, the binding signal is -0.0975 E-score.
To AGGAGAGA belongs -0.000748 E-score; to CGCAATAA, -0.0268 E-score.
To ATATCACG belongs 0.157 E-score; to CTGTCGAA, -0.0758 E-score; to ACCCCACT, -0.171 E-score.
The same measure for TACGTTCA: 0.085 E-score; for GTTGTTCA: 0.105 E-score; for CGGTCCAC: -0.206 E-score.
Turning to GGGAGGAA, the binding signal is -0.0773 E-score.
To CCACTGAG belongs -0.0835 E-score.
The same measure for GAGTCGAA: -0.145 E-score; for CTCTCGGA: -0.0508 E-score.
CATAAGCG returned a binding signal of -0.222 E-score.
Consider CTTGTATA, for which the binding signal was determined as 0.18 E-score.
Turning to ACGCCTCA, the binding signal is -0.108 E-score.
To CAACTGTG belongs 0.0396 E-score; to CTCCGCCA, -0.237 E-score.
The same measure for GCACCTCC: -0.227 E-score; for ATCTGTTC: -0.118 E-score.
The same measure for ACCAACTA: 0.161 E-score; for GCAGACGC: -0.208 E-score; for ATCGCAAA: 0.0121 E-score.
Consider AGCAATTC, for which the binding signal came to 0.115 E-score.
The same measure for GGTAATAC: 0.268 E-score.
CCCGTAAA came in with a binding signal of 0.12 E-score.
With GCATCAAC, the binding signal is 0.0173 E-score.
The same measure for CGAGTCGA: -0.0343 E-score; for CAATTCGC: -0.0316 E-score.
To ATAGCTCC belongs -0.0632 E-score.
Consider AGCTCTAA, for which the binding signal is -0.0978 E-score.
To CTATGCTC belongs -0.0315 E-score.
ACGATGGG showed a binding signal of 0.00184 E-score.
The same measure for TATCACGA: 0.139 E-score; for AGTCACAA: 0.034 E-score.
The same measure for CAACCTAA: -0.167 E-score; for GCATCCCC: -0.165 E-score; for ACGGATTC: 0.136 E-score.
The sequence CCATGCTC displayed a binding signal of -0.204 E-score.
The same measure for CCATCATC: -0.133 E-score; for GAATTGCA: -0.135 E-score.
The same measure for AGAACACC: -0.0349 E-score.
The same measure for CTAAAACC: -0.00998 E-score; for CCATAGCC: -0.307 E-score.
ACACCGGT registered a binding signal of -0.0234 E-score.
For CGGATTGA, the binding signal was -0.00596 E-score.
The same measure for AGTCGTGA: -0.0621 E-score; for ATGCTGGG: -0.124 E-score; for GGCCCTGA: -0.152 E-score.
CGTGTTTC displayed a binding signal of -0.14 E-score.
To AGTATCCC belongs -0.0158 E-score; to TATGCATA, 0.126 E-score.
To CCGCTAGA belongs 0.1 E-score; to AGGGTCCC, -0.127 E-score.
Sequence GGAAGACA returned a binding signal of -0.258 E-score.
The sequence AAGATACT yielded a binding signal of 0.285 E-score.
Sequence ATGGTTCC returned a binding signal of 0.00181 E-score.
The same measure for CGAGTCAG: -0.162 E-score; for AACTGAAC: 0.106 E-score.
Take TGATCAAA: the binding signal was 0.0322 E-score.
AGCCTTAT yielded a binding signal of -0.11 E-score.
To CGGCTTCC belongs -0.254 E-score.

Source of the values: article PMC6212790.
